Hit rate of the full screen: of about 200,000 compounds, about 4,500 (2.2%) were called active. The shares of active, inactive and inconclusive entries below differ from those in the screen. Calls come from the whole dose curve; as a rule, active = well fitted inhibition curve with a large enough effect; inconclusive = small, poorly fitted or top-dose-only effect, or effect the other way; inactive = flat fitted curve, though single readings scatter. Potencies of inconclusive entries are doubtful fits and often do not repeat. The source holds several records for some structures; these can differ, active in one and inactive in another.
Target: Cruzipain (Trypanosoma cruzi) (UniProt P25779)
Chain of UniProt P25779 (P25779 whole entry, looked up): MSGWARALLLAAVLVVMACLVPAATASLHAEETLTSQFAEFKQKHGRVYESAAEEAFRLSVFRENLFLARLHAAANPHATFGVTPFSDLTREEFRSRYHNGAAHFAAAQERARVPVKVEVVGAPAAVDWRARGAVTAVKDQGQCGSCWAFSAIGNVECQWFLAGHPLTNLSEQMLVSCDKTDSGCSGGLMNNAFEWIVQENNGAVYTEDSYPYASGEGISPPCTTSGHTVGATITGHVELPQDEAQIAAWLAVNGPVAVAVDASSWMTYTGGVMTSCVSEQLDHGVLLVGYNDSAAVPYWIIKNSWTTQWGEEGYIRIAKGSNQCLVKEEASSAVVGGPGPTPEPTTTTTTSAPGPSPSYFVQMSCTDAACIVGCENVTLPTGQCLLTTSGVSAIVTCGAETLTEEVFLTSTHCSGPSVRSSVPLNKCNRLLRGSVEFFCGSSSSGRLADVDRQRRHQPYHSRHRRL
Test: qHTS Assay for Promiscuous and Specific Inhibitors of Cruzain (without detergent); note: nearly all actives have a fitted effect of over 40% in size;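 for max response, negative = inhibition: plate controls were enzyme without inhibitor for no effect and buffer without enzyme for full effect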
Conditions: purified cruzain, Z-FR-AMC fluorescence, no detergent
Procedure, shortened: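 Detergent-free condition (0.00005% Triton X-100) in acetate buffer pH 5.5 with DTT. 1.5 nM enzyme and compound were pre-mixed 15 min, then 2 uM Z-FR-AMC substrate added; reaction progress from fluorescence change between first and third reads (60 s).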
Potency is the fitted concentration of half-maximal effect; tags give direction and shape of the fitted curve.

| Compound | Potency | max response, negative = inhibition |
| --- | --- | --- |
| N#CCc1c(C#N)c(N)nc(N2CCN(c3ccc(F)cc3)CC2)c1C#N | active: 15.8 µM | – |
| COCCCn1c(SCC(=O)NCc2ccccc2)nc2c(sc3ccccc32)c1=O | inconclusive: 6.31 µM [activator, single point] | – |
| C/C(CCN1CCc2nc(-c3ccccc3)c(-c3ccccc3)cc2C1)=N\O[C@@H](C)c1cc(-c2c(C)cc(C)cc2C)no1 | active: 20 µM | – |
| CCOC(=O)N1CCN(S(=O)(=O)c2ccc(OCC)c3ccccc23)CC1 | inconclusive: 39.8 µM [activator, single point] | – |
| Cc1ccc(NC2=C(C(=O)c3ccccc3)N(C)S(=O)(=O)c3ccccc32)cc1 | active: 20 µM | – |
| CN(C)c1ncnc2ccc(-c3ccc4c(c3)OCO4)cc12 | – | inactive: -9.84% |
| COc1cc(CN2C(=O)C(NC(=O)c3ccco3)(C(F)(F)F)C3=C2CC(C)(C)CC3=O)cc(OC)c1 (stereo unspecified) | inconclusive: 31.6 µM [activator, single point] | – |
| O=C(O)c1ccc(N2C(=O)C3ON(c4ccccc4)C(c4ccccc4F)C3C2=O)cc1 (stereo unspecified) | inconclusive: 31.6 µM [activator, single point] | – |
| CC(C)Oc1ccc(CNC(=O)c2ccc(NC(=O)N3CCSc4ncccc43)cc2)cc1 | – | inactive: 0.794% |
| CC(C)(C)n1cnc2cc(NCc3ccccc3Cl)ccc21 | – | inactive: -4.81% |
| O=c1c(CCc2ccccc2)nc2cncnc2n1Cc1ccccc1 | active: 3.16 µM | – |
| CCOc1cc(/C=N/NC(=O)COc2cccc(C)c2)ccc1OC(=O)c1cccs1 | inconclusive: 39.8 µM [inhibitor, single point] | – |
| CCOC(=O)c1c(S(=O)(=O)NCC(=O)Nc2ccc(C)c(Cl)c2)c(C)n(C)c1C | inconclusive: 31.6 µM [activator, single point] | – |
| Clc1ccc(Nc2nc(-c3cccs3)cs2)nc1 | inconclusive: 3.98 µM [inhibitor, partial curve, poor fit] | – |
| COc1ccc2nc(NC(=O)C3CCN(S(=O)(=O)c4cccs4)CC3)sc2c1 | inconclusive: 39.8 µM [inhibitor, single point] | – |
| COCCCNC(=S)N(Cc1cccnc1)Cc1ccc(OC)c(OC)c1 | – | inactive: 4.58% |
| COc1ccc(-c2nc3sc(CCNC(=O)c4cccc(C(F)(F)F)c4)c(C)n3n2)cc1 | inconclusive: 39.8 µM [activator, single point] | – |
| c1ccc(C2CC(c3ccccc3)n3c(nc4ccccc43)N2)cc1 (stereo unspecified) | active: 12.6 µM | – |
| Cc1cc(NC(=O)c2ccc3c(c2)C(=O)N(C)C3=O)no1 | – | inactive: 9.71% |
| OC1c2ccccc2-c2nc3ccccc3cc21 (stereo unspecified) | – | inactive: -0.923% |
| CC(=O)C1=C(C)NC(SCC(=O)c2ccc(Cl)c(Cl)c2)=C(C#N)C1c1ccco1 (stereo unspecified) | inconclusive: 31.6 µM [inhibitor, single point] | – |
| Cc1cc(C)c2c(c1)-c1c(ssc1=S)C(C)(C)N2C(=O)CN1C(=O)c2ccccc2C1=O | inconclusive: 39.8 µM [inhibitor, single point] | – |

| Compound | Potency | max response, negative = inhibition |
| --- | --- | --- |
| Cc1ccccc1Cn1nnc2c(=O)[nH]c(C3CCN(C(=O)c4ccccc4)CC3)nc21 | – | inactive: 5.84% |
| CCCC(C)C(=O)Nc1nc(C)c(-c2csc(Nc3cc(Cl)ccc3C)n2)s1 (stereo unspecified) | active: 12.6 µM | – |
| COC(=O)[C@@]1(Cc2ccc(OC)cc2)[C@H]2c3cc(C(=O)N4CCCC4)n(Cc4cc(C)n(C)n4)c3C[C@H]2CN1C(=O)c1ccccc1 | inconclusive: 7.94 µM [activator, full curve] | – |
| CCOc1ccc(C2c3[nH]c4ccccc4c3CCN2C(=O)Cc2cccc(OCC)c2OCC)cc1 (stereo unspecified) | inconclusive: 31.6 µM [inhibitor, single point] | – |
| Cc1ccc(-c2nnc(Nc3ccc(Br)cc3)c3ccccc23)cc1S(=O)(=O)NCc1nc2ccccc2[nH]1 | inconclusive: 31.6 µM [inhibitor, single point] | – |
| COc1cc2c3c(c1)/C(=C1/SC(NC(C)=O)=NC1=O)C(=O)N3C(C)(C)C=C2C | inconclusive: 3.16 µM [activator, single point] | – |
| O=C(c1ccco1)N(CCC(c1ccccc1)c1ccco1)Cc1ccco1 (stereo unspecified) | inconclusive: 39.8 µM [activator, single point] | – |
| COc1ccc2c3c1O[C@H]1C(=O)CC[C@@]4(O)C(C2)N(CC2CC2)CCC314 (stereo partly specified) | – | inactive: 6.55% |
| CCCCCc1ccc(CC(=O)Nn2c(C)nc3ccccc3c2=O)cc1 | inconclusive: 31.6 µM [activator, single point] | – |
| CCc1ccccc1N1C(=O)N(Cc2cccc(Cl)c2)c2ccccc2S1(=O)=O | inconclusive: 39.8 µM [inhibitor, single point] | – |
| CCCNS(=O)(=O)c1cc(-c2nnc3c4ccccc4c(C)nn23)ccc1OC | – | inactive: 2.33% |
| COc1ccccc1NS(=O)(=O)c1ccc(NC(=O)c2nc3nc(C)cc(C(F)F)n3n2)cc1 | inconclusive: 25.1 µM [activator, partial curve] | – |
| COc1cccc(-c2cc(C(=O)NCc3ccc(Cl)cc3)no2)c1 | inconclusive: 39.8 µM [inhibitor, single point] | – |
| COc1ccc(S(=O)(=O)N(CCc2ccccc2)CC(=O)NCc2ccccc2)cc1OC | inconclusive: 39.8 µM [activator, single point] | – |
| O=C(Nc1nc2ccc(SC(F)F)cc2s1)c1ccc2c(c1)S(=O)(=O)c1ccccc1C2=O | active: 5.01 µM | – |
| COc1cc(OC)c(NC(=O)NCc2ccc3c(c2)CCN3C(C)=O)cc1Cl | inconclusive: 15.8 µM [activator, partial curve, poor fit] | – |
| CCc1cc2c(=O)nc3n(c2s1)Cc1ccccc1/C3=C(/O)c1ccc(F)cc1 | inconclusive: 39.8 µM [inhibitor, single point] | – |
| CCOC(=O)c1c(S(=O)(=O)N2CCN(c3ccccc3OC)CC2)c(C)n(C)c1C | – | inactive: 10.4% |
| COc1ccc(NC(=O)c2ccc3c(c2)C(=O)N(Cc2cccnc2)C3=O)cc1 | inconclusive: 39.8 µM [inhibitor, single point] | – |
| CC12CCC3C(CC=C4CC(O)CCC43C)C1C/C(=C\c1ccccc1F)C2=O (stereo unspecified) | inconclusive: 12.6 µM [activator, partial curve] | – |
| COc1ccc(-c2csc(NC(=O)CCCc3cccs3)n2)cc1 | active: 10 µM | – |
| CCc1ccccc1NC(=O)CC(C)n1nc(C)cc1C (stereo unspecified) | – | inactive: 3.61% |

| Compound | Potency | max response, negative = inhibition |
| --- | --- | --- |
| COc1cc2c(cc1O)CC1c3c(cc(O)c(OC)c3-2)CCN1C (stereo unspecified) | active: 31.6 µM | – |
| COC(=O)Sc1nc(N2CCOCC2)c2c(c1C#N)CC(C)(C)OC2 | active: 15.8 µM | – |
| Cn1c(=NC(=O)c2ccc(F)cc2)sc2cc(Br)ccc21 | – | inactive: 4.7% |
| CCOCN(C(=O)Cn1c(C)nc2ccccc21)c1c(C)cccc1CC | inconclusive: 25.1 µM [activator, partial curve] | – |
| CCC1(C)N=C(c2ccc3c(c2)OCO3)CC(c2ccccc2O)N1 (stereo unspecified) | inconclusive: 20 µM [inhibitor, partial curve, poor fit] | – |
| CCCC[C@@H]1C[C@H]1C(NC(=O)c1ccccc1)c1ccc(-c2ccccc2)cc1 (stereo partly specified) | – | inactive: -2.94% |
| COc1cc2c(cc1NC(=O)CN1CCN(S(=O)(=O)c3ccc(C)cc3)CC1)oc1ccccc12 | active: 7.94 µM | – |
| CCOc1ccccc1NC(=O)c1c(NCc2ccc(OC)c(OC)c2OC)sc2c1CCC(C)C2 (stereo unspecified) | – | inactive: 25.5% |
| O=c1cccc2n1Cc1cc3ccccc3nc1-2 | inconclusive: 25.1 µM [inhibitor, single point] | – |
| CCc1nnc(SCc2nc(-c3ccccc3F)oc2C)c2cc3sccc3n12 | – | inactive: -29.4% |
| O=C(Nc1nccs1)c1ccc(COc2ccccc2Br)o1 | inconclusive: 39.8 µM [inhibitor, single point] | – |
| Fc1ccc(COc2ccc(Cl)cc2/C=N/Nc2nc(N3CCCC3)nc(N3CCCC3)n2)cc1 | active: 5.01 µM | – |
| COc1ccc(N(CC(=O)N2CCCC(C)C2)S(=O)(=O)c2c(C)nn(C)c2C)cc1 (stereo unspecified) | inconclusive: 31.6 µM [activator, single point] | – |
| COc1ccc(C2=NN(C(=O)CSc3nnc(-c4ccccc4F)o3)C(c3ccco3)C2)cc1 (stereo unspecified) | inconclusive: 31.6 µM [inhibitor, single point] | – |
| Cc1ccc(S(=O)(=O)N2CCC(=O)N(C(COCc3ccc(C(F)(F)F)cc3)C(C)C)CC2)cc1 (stereo unspecified) | inconclusive: 31.6 µM [activator, single point] | – |
| Cc1ccc(Cl)cc1N1CCN(C(=O)c2c(C)oc3ncnc(N4CCOCC4)c23)CC1 | inconclusive: 39.8 µM [activator, single point] | – |
| O=C(Nc1ccc2nn(-c3ccc(F)cc3)nc2c1)c1cccc2c(Cl)cccc12 | – | inactive: -3.54% |
| O=[N+]([O-])c1cccc(/C=C/c2nc(C=Nc3ccccc3)c(O)o2)c1 | active: 12.6 µM | – |
| COc1cc(NC(=O)CN2CCN(c3ccccc3)CC2)c(C)cc1[N+](=O)[O-] | inconclusive: 25.1 µM [inhibitor, single point] | – |
| Cc1ccc(NC(=O)c2cccc(OCc3c(C)noc3C)c2)cc1S(=O)(=O)Nc1ccccc1Cl | inconclusive: 39.8 µM [inhibitor, single point] | – |
| S=C(NCc1ccncc1)Nc1cccc(Cl)c1 | – | inactive: 13.2% |
| Cc1cc(Br)ccc1NC(=O)CNC(=O)CN1C(=O)NC2(CCCCCC2)C1=O | inconclusive: 25.1 µM [activator, single point] | – |

Source: PubChem BioAssay AID1476 (National Center for Advancing Translational Sciences (NCATS), 2009)
